No constants are given. Whether binding was seen depends on the method and setting. In cells and extracts the contact can be indirect. Tags and fused reporters may be left off the sequences shown.
What was measured:
Flag-IRAK2 = target: T1, Flag-IRAK2 (UniProt O43187); test: co-IP; HEK293T cells co-transfected with tagged plasmids; IP buffer 1% NP-40, 150 mM NaCl, 10 mM Tris-HCl pH 7.4, 1 mM EDTA; antibody with Protein A/G PLUS Agarose overnight; immunoblot
T1 sequence: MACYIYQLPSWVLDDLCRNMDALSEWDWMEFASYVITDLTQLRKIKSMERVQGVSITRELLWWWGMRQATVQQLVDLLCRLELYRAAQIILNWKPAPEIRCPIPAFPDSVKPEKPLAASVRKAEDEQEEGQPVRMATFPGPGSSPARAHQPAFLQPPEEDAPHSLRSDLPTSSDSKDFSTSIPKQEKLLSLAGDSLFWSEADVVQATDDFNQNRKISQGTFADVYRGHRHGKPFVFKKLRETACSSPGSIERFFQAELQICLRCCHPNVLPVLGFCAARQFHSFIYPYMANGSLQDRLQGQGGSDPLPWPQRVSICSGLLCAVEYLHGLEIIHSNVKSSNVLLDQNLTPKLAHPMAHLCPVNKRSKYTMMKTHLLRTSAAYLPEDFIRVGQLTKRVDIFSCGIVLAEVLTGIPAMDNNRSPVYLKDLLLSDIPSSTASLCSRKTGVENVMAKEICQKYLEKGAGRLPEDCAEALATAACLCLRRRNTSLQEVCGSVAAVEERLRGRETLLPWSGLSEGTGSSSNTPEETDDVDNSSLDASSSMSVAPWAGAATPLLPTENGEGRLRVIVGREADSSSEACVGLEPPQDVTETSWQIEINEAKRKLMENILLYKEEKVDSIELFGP

Flag-IRAK4 = target: T2, Flag-IRAK4 (UniProt Q9NWZ3); test: as above
T2 sequence: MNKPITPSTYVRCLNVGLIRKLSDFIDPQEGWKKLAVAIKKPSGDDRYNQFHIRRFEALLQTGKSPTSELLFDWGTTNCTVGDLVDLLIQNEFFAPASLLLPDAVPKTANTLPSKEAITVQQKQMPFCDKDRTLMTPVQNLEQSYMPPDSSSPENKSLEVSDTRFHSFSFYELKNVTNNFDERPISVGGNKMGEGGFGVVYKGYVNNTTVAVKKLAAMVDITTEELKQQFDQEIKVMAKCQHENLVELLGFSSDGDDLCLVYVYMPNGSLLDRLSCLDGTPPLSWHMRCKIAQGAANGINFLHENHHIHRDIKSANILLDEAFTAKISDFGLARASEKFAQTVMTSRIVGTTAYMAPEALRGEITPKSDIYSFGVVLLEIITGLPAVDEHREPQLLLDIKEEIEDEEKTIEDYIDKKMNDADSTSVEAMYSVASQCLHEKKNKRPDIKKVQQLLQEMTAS

binding (Flag-IRAK2): no binding | binding (Flag-IRAK4): no binding
B1: Myc-OTUD5 (enzyme, UniProt Q96G74 1-571)
chain: MTILPKKKPPPPDADPANEPPPPGPMPPAPRRGGGVGVGGGGTGVGGGDRDRDSGVVGARPRASPPPQGPLPGPPGALHRWALAVPPGAVAGPRPQQASPPPCGGPGGPGGGPGDALGAAAAGVGAAGVVVGVGGAVGVGGCCSGPGHSKRRRQAPGVGAVGGGSPEREEVGAGYNSEDEYEAAAARIEAMDPATVEQQEHWFEKALRDKKGFIIKQMKEDGACLFRAVADQVYGDQDMHEVVRKHCMDYLMKNADYFSNYVTEDFTTYINRKRKNNCHGNHIEMQAMAEMYNRPVEVYQYSTGTSAVEPINTFHGIHQNEDEPIRVSYHRNIHYNSVVNPNKATIGVGLGLPSFKPGFAEQSLMKNAIKTSEESWIEQQMLEDKKRATDWEATNEAIEEQVARESYLQWLRDQEKQARQVRGPSQPRKASATCSSATAAASSGLEEWTSRSPRQRSSASSPEHPELHAELGMKPPSPGTVLALAKPPSPCAPGTSSQFSAGADRATSPLVSLYPALECRALIQQMSPSAFGLNDWDDDEILASVLAVSQQEYLDSMKKNKVHRDPPPDKS

Source: PMC11164869
